# Measurements from the BET-seq Pho4 binding data (Le et al. 2018).
# Some of the results follow. Values were computed here from the reads of four pooled replicates and scatter widely.
# Target: T1, Pho4 (S. cerevisiae) (UniProt P07270)
# T1 sequence: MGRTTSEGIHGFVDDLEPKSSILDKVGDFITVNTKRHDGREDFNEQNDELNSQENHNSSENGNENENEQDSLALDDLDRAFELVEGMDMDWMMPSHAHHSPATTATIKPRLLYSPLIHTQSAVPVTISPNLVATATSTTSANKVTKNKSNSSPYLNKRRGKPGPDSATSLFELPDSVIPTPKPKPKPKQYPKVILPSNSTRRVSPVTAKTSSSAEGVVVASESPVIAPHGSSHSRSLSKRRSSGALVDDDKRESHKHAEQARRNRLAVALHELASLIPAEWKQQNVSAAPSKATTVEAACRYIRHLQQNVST
# Test: relative binding free energy (BET-seq); higher = weaker binding
# Conditions: reference: library average
row,Sequence,relative binding free energy
1,ATAGTCACGTGAATGT,0.2 kcal/mol
2,CGTAGCACGTGTCGGG,-0.03 kcal/mol
3,TGTAGCACGTGGGAAC,-0.11 kcal/mol
4,TGTTTCACGTGTTAAA,0.23 kcal/mol
5,ATTGGCACGTGTATCG,-0.09 kcal/mol
6,TCTGGCACGTGGTTAA,-0.14 kcal/mol
7,GTGGGCACGTGCGACG,-0.07 kcal/mol
8,TGGTCCACGTGTTTGA,0.07 kcal/mol
9,TAGTGCACGTGGATGC,0.04 kcal/mol
10,CGGTGCACGTGATGGA,-0.01 kcal/mol
11,TGATTCACGTGGTAGG,0.19 kcal/mol
12,ATGTTCACGTGCTGTG,0.24 kcal/mol
13,TTGGTCACGTGGATAA,0.11 kcal/mol
14,TTTCTCACGTGCTTTT,0.27 kcal/mol
15,CGAATCACGTGTGTGG,0.14 kcal/mol
16,GTTTGCACGTGAACGG,0.21 kcal/mol
17,GCTAGCACGTGGCGGT,-0.11 kcal/mol
18,GGAGACACGTGTATTG,0.06 kcal/mol
19,TGTTACACGTGGTTGG,-0.03 kcal/mol
20,CGTTTCACGTGCGGTT,0.35 kcal/mol
21,GGTAGCACGTGTACTT,0.15 kcal/mol

row,Sequence,relative binding free energy
1,TGTGGCACGTGATTGG,-0.05 kcal/mol
2,TTGGCCACGTGGGGGA,-0.12 kcal/mol
3,GGTTCCACGTGCGTTT,0.04 kcal/mol
4,TGCCACACGTGCGGGG,0.04 kcal/mol
5,TTCTGCACGTGTGTAA,-0.02 kcal/mol
6,AAGGGCACGTGTACGG,-0.01 kcal/mol
7,TGCAGCACGTGTTGGG,-0.11 kcal/mol
8,AGGGCCACGTGTATAG,0.01 kcal/mol
9,TTTGTCACGTGTTTCG,0.13 kcal/mol
10,AAATGCACGTGATGTG,0.03 kcal/mol
11,AATGTCACGTGTAGGG,0.19 kcal/mol
12,ACTTACACGTGGGGTG,-0.19 kcal/mol
13,TGCGGCACGTGAAGGG,0.09 kcal/mol
14,TGTGACACGTGTCGAG,0.1 kcal/mol
15,GTATACACGTGTATGG,0.12 kcal/mol
16,TGCGCCACGTGGTGAG,-0.12 kcal/mol
17,TTATGCACGTGTCAGT,-0.05 kcal/mol
18,TTGAACACGTGCGGTA,-0.12 kcal/mol
19,GGCCGCACGTGTTAGT,0.09 kcal/mol
20,ATTTACACGTGACGGT,0.13 kcal/mol
21,TAAATCACGTGCTGTT,0.04 kcal/mol

row,Sequence,relative binding free energy
1,GGCCTCACGTGGGGGC,-0.02 kcal/mol
2,ACGTACACGTGAGGTT,0.25 kcal/mol
3,GTTAGCACGTGCGGGG,-0.13 kcal/mol
4,GTATGCACGTGTTTCA,-0.06 kcal/mol
5,CGTTACACGTGGGGGG,-0.07 kcal/mol
6,GTTTGCACGTGTAGGT,0.05 kcal/mol
7,GACGTCACGTGCGTGG,0.17 kcal/mol
8,GTGAACACGTGAAGTG,0.31 kcal/mol
9,AGGTACACGTGCGCGG,-0.11 kcal/mol
10,TGTAACACGTGATTGT,0.14 kcal/mol
11,CGACGCACGTGGAGGG,-0.1 kcal/mol
12,TTAGTCACGTGCGTCA,-0.01 kcal/mol
13,CTGAGCACGTGGTGTG,-0.15 kcal/mol
14,TTTGACACGTGTAGGG,-0.16 kcal/mol
15,ATTCGCACGTGGGGGC,-0.08 kcal/mol
16,TTGAGCACGTGGGCAA,-0.17 kcal/mol
17,GGTTACACGTGGGATG,0.16 kcal/mol
18,GTGGGCACGTGATTCG,0.12 kcal/mol
19,TGTATCACGTGGTTTC,0.18 kcal/mol
20,GGTGGCACGTGTCGGA,0.02 kcal/mol
21,CATTTCACGTGGTAGT,0.27 kcal/mol
